Measurements as given in ChEMBL document CHEMBL4888484, “Replenishing the malaria drug discovery pipeline: Screening and hit evaluation of the MMV Hit Generation Library 1 (HGL1) against asexual blood stage Plasmodium falciparum ,using a nano luciferase reporter read-out” (2022).
In all, about 4,800 compounds went through this assay and about 420 (8.8%) showed an effect of 50% or more. The list shows a part of the results.

test system: Plasmodium falciparum; assay: Confirmatory screen in NF54 nanoGlo assay, in single point, at 2uM, 72h; assay type: functional, Erythrocyte; conditions: timepoint 72 hour

SMILES | % Inhibition
CCO[C@H]1OCCn2c1c(Br)c(=O)n(C)c2=O | 2%
O=C(c1cccc(C(=O)N2CCN(C(c3ccccc3)c3ccccc3)CC2)c1)N1CCN(C(c2ccccc2)c2ccccc2)CC1 | 63%
Cc1ccc(N2CCN(c3c(C(=O)N4CCCCC4)cnc4ccc(F)cc34)CC2)cc1 | -8%
CCCc1ccc(Cl)c(S(=O)(=O)Nc2nnc(C3CC3)o2)c1 | 2%
CN1CN(C(=O)c2cc(C#N)cn2C)CC1=O | -10%
CCCOc1ccc(Nc2cc(C)nc3ccc(Cl)cc23)cc1 | 42%
CC(C)C(=O)Nc1ccc(-c2cc(-c3ccc(NC(=O)C(C)C)cc3)nc(-c3ccncc3)n2)cc1 | 56%
O=c1[nH]c2nc(N3CCN(c4ncccn4)CC3)ncc2c(=O)n1Cc1ccco1 | -21%
Cc1cc(C)cc(-c2cc3nc(C)cc(N4CCC(C(=O)NCc5cccc(F)c5)CC4)n3n2)c1 | 79%
COC(=O)[C@@H](NC(=O)NC1CCCCC1)C(C)(C)C | -2%
O=C(N[C@H]1CC12CC2)c1ccncc1F | -13%
CC(C)(C)C(=O)NCCNC(=O)c1ccccn1 | 8%
Cc1c(N2CCC(C(=O)NCCN3CCOCC3)CC2)c(=O)n(CC(C)C)c(=O)n1-c1ccccc1 | -6%
CC[C@H](C)NC(=O)c1cn(-c2cccc(C)n2)cn1 | 1%
CCCn1ccnc1-c1cn(Cc2cc3ccccc3[nH]2)nn1 | 39%
O=C(CN1CCCC1)Nc1ccc(N2CCn3c(nc4ccccc43)C2)cc1 | 6%
CC(=O)Nc1cccc(C#CCN2CCN(c3ccc(F)cc3)CC2)c1 | -5%
CCOc1ccc(-c2ccnc3c(C(=O)NCCc4c[nH]c5ccc(OC)cc45)cnn23)cc1 | -2%
CC(=O)N(Cc1ccccc1)c1ccc2c(c1)nc(Cn1nc(C)cc1C)n2C | 2%
COc1ccc(CCNC(=O)c2cc3c(=O)[nH]c(C)cn3n2)cc1OC | 67%
COc1ccc(C)cc1NC(=O)N1CC[C@@]2(C1)Nc1cccnc1N=C2NC1CCCC1 | -5%
Nc1ccnc(OCc2ccccc2)n1 | -14%

SMILES | % Inhibition
COCCS(=O)(=O)Nc1ccc(Br)c(C)n1 | -5%
Cc1ccc(N2C(=O)NC3c4ccccc4OC2(C)C3C(=O)Nc2ccc(Cl)cc2)cc1Cl (stereo not given) | -13%
CC1(C(=O)N[C@H]2CCO[C@H](c3ccccn3)C2)CC1F (stereo not given in full) | 3%
CCCc1nc(N2CCCN(C(=O)C3CCCCC3)CC2)c2c(C)nn(-c3ccccc3)c2n1 | 0%
O=S(=O)(Cc1ccccc1)N1CCC2(CCCCC2)C1 | 0%
CC(C)N(C)c1ccc(NC(=O)C2=NN(C)C(=O)CC2)cc1F | 1%
CCOc1ccccc1NC(=O)Cc1c(C)nc2nc(-c3cccnc3)nn2c1C | 0%
O=C(Nc1nc(CCc2c[nH]c3ccccc23)n[nH]1)c1cccnc1 | 10%
Cc1nn(-c2ncccn2)c2c1[C@@H](c1ccccc1)CC(=O)N2 | -16%
Cc1nn(-c2nc3ccccc3[nH]2)c2c1[C@@H](c1cccnc1)CC(=O)N2 | 79%
Cc1cc2c(cc1C)O[C@H](C(=O)Nc1nnn[nH]1)C2 | -14%
Cc1ccc(-c2ccnc3c(C(=O)N4CCOCC4)cnn23)cc1C | -3%
CC(C)c1cc(NS(=O)(=O)c2ccc3c(c2)OCCCO3)[nH]n1 | -12%
O=c1[nH]c(=O)n(Cc2nc(-c3ccco3)no2)cc1Cl | 0%
Clc1ccc(Cn2cc(CNCCCn3ccnc3)c3ccccc32)c(Cl)c1 | 98%
O=C(c1ccccc1)C1C(c2ccccc2)N1C(=O)c1ccc(Cl)cc1Cl (stereo not given) | -3%
Cc1cccc(C2(c3cccc(C)c3)c3ccccc3/C(=N\c3ccccc3)N2c2ccccc2)c1 | 4%
O=C(N[C@H]1CC[C@@H]2CCC[C@@H]21)c1c[nH]c(=O)c(Cl)c1 | 43%
Clc1ccc(OCc2ccc(-c3nc4c5cn[nH]c5ncn4n3)cc2)c(Cl)c1 | -6%
Fc1ccc(-c2cc3c(N4CCCCC4)nccn3n2)cc1 | 0%
C[C@@H](NC(=O)Nc1ccc(Cl)c(Cl)c1)C(=O)O | 5%
O=C(c1ccoc1-c1ccccc1O)N1CCOCC1 | 1%

SMILES | % Inhibition
NC(=O)CN1CCCN(C(=O)c2cnc3ccccc3n2)CC1 | 4%
CCOc1cccc(Cn2c(=O)c3sccc3n(CC(=O)Nc3ccccc3)c2=O)c1 | 9%
Cc1noc2ncc(C(=O)N3C[C@H](C)OC(C)(C)C3)cc12 | 9%
Cc1ccc(N2CCCN(Cc3ccc(C(C)C)cc3)C2=O)c(NC(=O)c2ccco2)c1 | 8%
COc1ccc(CCc2nc(NC(=O)c3[nH]nc4c3CCC4)n[nH]2)cc1 | -1%
Nc1c(-c2ccccc2)nsc1C(=O)NCC1CC1 | 0%
CCCn1nccc1C(=O)NCCCn1ncc2c(C)cccc21 | -2%
c1ccc(-n2ncnc2[C@@H]2COCCN2)cc1 | 0%
O=C1C2C3CCCCN3C3(C(=O)N(Cc4ccc(F)cc4)c4ccccc43)C2C(=O)N1c1ccccc1 (stereo not given) | -1%
C[C@H]1CCc2c(cnc3c(C(=O)NCc4ccccc4)cnn23)C1 | -6%
CCn1ncc(NC(=O)c2cc(-c3ccccc3)on2)c1C | -15%
O=C(NC[C@H]1CCCO1)N1CCN(c2nccs2)C(=O)C1 | 1%
O=C(Cn1nnc2ccccc21)N(Cc1ccccc1)C1(C(=O)Nc2ccc3c(c2)OCO3)CCCCC1 | 23%
Cc1ccc(C(=O)N2CC(C)CC(C)C2)cc1NCc1ncc[nH]1 (stereo not given) | 8%
Cc1cccc2ncnc(N(C)[C@@H](C)Cc3ccc(O)cc3)c12 | 79%
Nc1n[nH]c2c(Cl)c3nnc(-c4ccccc4)n3c(Cl)c12 | 8%
O=C(NCc1ccoc1)NCC1(c2ccccc2)CC1 | -12%
Cc1nn(C)c(NC(=O)Nc2cccc(Cl)c2)c1C1=CCCCC1 | -5%
O=C(Nc1ccc(N2CCCC2)c(F)c1)C(=O)Nc1ccon1 | -17%
CNC(=O)c1ccc(N(C)Cc2ccc(O)cc2)nn1 | 0%
Fc1ccc(-c2cc3c(N4CCCCCC4)nccn3n2)cc1 | 4%
